Data on seven molecules can be found in PubChem BioAssay (NCATS).

The structures appear in SMILES notation. Several values for one entry are separate records, joined by “and”; a condition that tells them apart may be missing. Equal values may be shown once. This is one part of the list. The main result of the screen is listed elsewhere. These columns were measured beside it and carry no call. For some of these results: The list favours compounds with an active or inconclusive main result. For some of these results: Words in brackets tell the shape of the fitted curve; partial curves, single points and poor fits give uncertain potencies.

A short description of assay [1]: qHTS Assay for Lipid Storage Modulators (AID 1519). Particulars: Drosophila S3 cells, BODIPY lipid droplet/cell ratio, laser cytometry, cells loaded with oleic acid; for AC50: measured here: lipid (BODIPY) channel AC50. An outline of the steps: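 Cells seeded at 5,000 per well were treated with compounds over a concentration series and loaded with oleic acid (400 uM, as added). Lipid droplet fluorescence (488 nm excitation, 500-530 nm channel) was read by laser-scanning cytometry and normalized to 20 uM Triacsin C.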
(In general: In qHTS, concentration-response curves come from the screen itself.)

The target of assay [2] is Catechol O-methyltransferase (Homo sapiens) (UniProt P21964). In words: Confirmatory Screen for Target Class Profiling of Small Molecule Inhibitors of Methyltransferases (AID 1745852).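 Also: inhibitor potency for blocking SAH production.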 The following applies: MTase-Glo luminescence, SAH detection, recombinant enzyme; measured here: COMT inhibition potency.
Chain of UniProt P21964 (P21964 whole entry, looked up): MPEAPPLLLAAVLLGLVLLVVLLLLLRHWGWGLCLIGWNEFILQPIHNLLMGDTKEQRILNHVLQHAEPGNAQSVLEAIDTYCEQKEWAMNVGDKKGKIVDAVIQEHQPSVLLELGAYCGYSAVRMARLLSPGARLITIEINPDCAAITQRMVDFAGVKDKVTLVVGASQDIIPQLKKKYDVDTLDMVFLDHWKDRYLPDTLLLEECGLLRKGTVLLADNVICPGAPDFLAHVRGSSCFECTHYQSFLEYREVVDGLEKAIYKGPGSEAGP
Assay [3] addresses Histamine N-methyltransferase (Homo sapiens) (UniProt P50135). The assay is described as above. Particulars: MTase-Glo luminescence, SAH detection, recombinant enzyme; measured here: HNMT inhibition potency.
Chain of UniProt P50135 (P50135 whole entry, looked up): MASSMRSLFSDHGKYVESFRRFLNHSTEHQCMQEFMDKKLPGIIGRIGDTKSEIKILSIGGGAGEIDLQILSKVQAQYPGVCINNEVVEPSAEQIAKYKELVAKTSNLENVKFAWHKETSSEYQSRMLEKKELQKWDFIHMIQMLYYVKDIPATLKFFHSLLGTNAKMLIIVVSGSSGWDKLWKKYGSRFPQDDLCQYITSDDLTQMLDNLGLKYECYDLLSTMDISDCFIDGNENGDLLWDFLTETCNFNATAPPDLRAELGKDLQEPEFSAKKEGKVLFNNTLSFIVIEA
The target of assay [4] is Nicotinamide N-methyltransferase (Homo sapiens) (UniProt P40261). Described as above. The following applies: MTase-Glo luminescence, SAH detection, recombinant enzyme; measured here: NNMT inhibition potency.
Chain of UniProt P40261 (P40261 whole entry, looked up): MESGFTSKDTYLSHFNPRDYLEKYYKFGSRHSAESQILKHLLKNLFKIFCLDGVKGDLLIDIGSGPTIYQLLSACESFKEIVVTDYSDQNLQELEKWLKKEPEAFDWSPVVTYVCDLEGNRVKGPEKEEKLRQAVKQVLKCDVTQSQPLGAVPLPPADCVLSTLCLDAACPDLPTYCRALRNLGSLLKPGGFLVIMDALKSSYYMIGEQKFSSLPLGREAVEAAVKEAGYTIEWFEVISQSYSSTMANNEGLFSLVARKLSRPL
In assay [5] the target is Phenylethanolamine N-methyltransferase (Homo sapiens) (UniProt P11086). The description is as above. The following applies: MTase-Glo luminescence, SAH detection, recombinant enzyme; measured here: PNMT inhibition potency.
Chain of UniProt P11086 (P11086 whole entry, looked up): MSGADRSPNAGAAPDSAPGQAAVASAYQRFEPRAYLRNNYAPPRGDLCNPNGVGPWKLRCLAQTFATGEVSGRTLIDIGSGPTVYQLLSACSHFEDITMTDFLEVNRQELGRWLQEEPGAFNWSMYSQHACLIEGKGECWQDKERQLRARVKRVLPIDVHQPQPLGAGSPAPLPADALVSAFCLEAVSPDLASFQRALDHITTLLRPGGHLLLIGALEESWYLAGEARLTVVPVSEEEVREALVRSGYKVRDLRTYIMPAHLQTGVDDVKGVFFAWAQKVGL
Assay [6] in a line: qHTS Assay for Inhibitors of PDE-IV (AID 607).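 Also: parental cells stimulated with forskolin 10 µM plus RO 20-1724 100 µM.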 The following applies: HEK293 ACTOne CNG channel cells, membrane potential fluorescence; measured here: parental cell counter-screen. An outline of the steps:
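HEK293 ACTOne cells with CNG channel (1000/well), endogenous PDE4; membrane potential dye, compounds up to 22.9 uM final. Fluorescence Ex 535/Em 590; RO 20-1724 (100 uM final) as reference.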

Assay [7] is described as follows: qHTS for identification of novel therapeutic agents for treatment of microphthalmiaassociated transcription factor (MiT) renal cell carcinoma (RCC) (AID 1963991). The following applies: CellTiter-Glo, 48 h; for z-score: stronger effect = lower value; for AC50: measured here: UOK145 cell viability. Summed up: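 Three TFE3-fusion RCC lines (UOK109, UOK124, UOK145), 500 cells/well in complete medium, were treated with MIPE 4.0 compounds for 48 hours at 37 C. Viability was by CellTiter-Glo luminescence, normalized to DMSO (100%) and empty wells (0%); curves fitted over 11 concentrations.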

Assay [8] in a line: qHTS assay for small molecule antagonists of androgen receptor signaling (AID 588516). The following applies: AR-UAS-bla HEK293, beta-lactamase ratio, antagonist mode, 16 h; measured here: W460 blue channel fit. Summed up:
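Antagonist mode: inhibition of R1881-stimulated (10 nM final) bla reporter in GeneBLAzer AR HEK 293 cells, 16 h at 37C, compounds titrated. IC50 and efficacy from Hill-equation fits of 405/460–530 nm FRET ratios.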

Assay [9] can be described thus: qHTS assay for small molecule antagonists of peroxisome proliferator-activated receptor delta signaling (AID 588535).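 Also: cells co-treated with a PPAR-delta agonist as stimulator during compound exposure.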 The following applies: HEK293T PPARd-UAS-bla, beta-lactamase FRET ratio, 18 h; 460 nm channel. Summed up:
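Fluorescence from CCF4-loaded GeneBLAzer PPAR-delta-UAS-bla HEK293T cells (2 hrs RT loading) quantified reporter inhibition after an 18 hr, 37 C compound exposure across a titration.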

Assay [10] can be described thus: qHTS Assay for Modulators of Human Peripheral Myelin Protein 22 (PMP22) Expression/Activity (AID 1967). Particulars: Cell-based PMP22 reporter, dual-color luciferase ratio. An outline of the steps:
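Quantitative HTS in a mouse Schwann cell line expressing dual click beetle luciferases: Pmp22 promoter (green) and control EF-alpha promoter (red). After 24h treatment, corrected green/red signal ratio gave %Activity relative to untreated cells.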

Assay [11] in a line: qHTS drug screen for cell cycle checkpoint inhibitors in PARPi-resistant BRCA-mutant ovarian cancer cell lines. (AID 1963452). The following applies: PEO1/OlaR viability, CellTiter-Glo luminescence, 96 h. Summed up: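 PEO1, PEO4 and PEO1/OlaR ovarian cancer cells, 600 per well, exposed 96 h at 37C to a dilution series. Viability read by CellTiter-Glo luminescence, normalized to DMSO and empty wells; activity summarized as Z-AUC.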

Setting [12] is: measured here: cell count channel max response.
Setting [13] is: measured here: lipid channel max response.
The mark [14] stands for this setting: TFE3-RCC UOK109 viability, measured here: UOK109 Z-AUC.
The mark [15] stands for this setting: TFE3-RCC viability, measured here: UOK124 Z-AUC.
The mark [16] stands for this setting: TFE3-RCC viability, measured here: UOK145 Z-AUC.
Where [17] appears, read: measured here: green reporter channel AC50, mouse Pmp22 promoter in mouse Schwann cells.
[18] abbreviates: measured here: red reporter channel AC50, EF-alpha promoter control reporter in MSC80 mouse Schwann cells.

As a reminder, the AC50 is the concentration at which the activity in the assay is half-maximal. Broadly, the IC50 is the concentration at which inhibition is half-maximal.
Tags tell the direction and shape of the fitted curve.

In the case of `Nc1ncnc2c1c(I)cn2C1OC(CO)C(O)C1O` (stereo unspecified), the max response is -21.2% in assay [1] (setting [12]) and -49.3% in assay [1] (setting [13]). Further, the AC50 in assay [1] is 7.94 µM [falling, full curve]. Besides, the IC50 is 10.8 µM [falling, full curve] in [2]; 10.8 µM [falling, full curve] in [3]; 12.1 µM [falling, full curve] in assay [4]; 10.8 µM [falling, full curve] in [5].

Regarding `CCN(CC)CCOc1ccc(Cc2ccccc2)cc1`, the AC50 in assay [6] was 15.8 µM [rising, single point]; in [1], 39.8 µM [rising, single point]. Moreover, the max response was found to be 26.1% in assay [1] (setting [12]) and 37.5% in [1] (setting [13]). The results for the z-score in assay [7] (setting [14]), in assay [7] (setting [15]) and in [7] (setting [16]) were 0.834, 0.552 and 0.684, respectively.

As to `Cc1ccc(C)c(OCCCC(C)(C)C(=O)O)c1`, the AC50 in [6] is 1.26 µM [rising, full curve]; in assay [1], 39.8 µM [rising, partial curve, poor fit]; in assay [8] it was 31.6 µM [falling, partial curve, poor fit]; in assay [7] (TFE3-RCC viability) it was 37.2 µM [falling, single point]. Further, the max response was found to be 20.5% in assay [1] (setting [12]), 42% in assay [1] (setting [13]) and 73.7% in assay [9]. Besides, the z-score in assay [7] (setting [14]) was 0.607; in [7] (setting [15]) it was 0.452; in assay [7] (setting [16]), 0.4.

Turning to `Cc1nc2ccccn2c(=O)c1CCN1CCC(C(=O)c2ccc(F)cc2)CC1`, the max response is 43.5% in [1] (setting [12]) and 45.1% in [1] (setting [13]). Also, the AC50 is 2.82 µM [falling, full curve, poor fit] in assay [1]; 75.7 µM [falling, partial curve] in [10] (setting [17]); 75.7 µM [falling, single point] in assay [10] (setting [18]).

In the case of `CCCCOc1ccc(CC(=O)NO)cc1`, the max response is 27.3% in assay [1] (setting [12]) and 51.1% in assay [1] (setting [13]). For the same molecule, the AC50 in [1] is 22.4 µM [rising, partial curve, poor fit]; in assay [11] (measured here: PEO1 parental viability) it was 0.616 µM [falling, partial curve, poor fit]; in assay [11] (measured here: PEO4 viability) it was 17.4 µM [falling, single point]; in [7] (TFE3-RCC viability), 23.5 µM [falling, partial curve, poor fit]. In addition, the z-score is 0.784 in assay [7] (setting [14]), 0.23 in assay [7] (setting [15]) and 0.509 in assay [7] (setting [16]).

On to `O=C(OCCN1CCCCC1)c1c[nH]c2ccccc12`, for which the max response in [1] (setting [12]) is 29.5%; in assay [1] (setting [13]), 40.3%. For the same molecule, the AC50 in [1] was 14.1 µM [rising, partial curve, poor fit]; in assay [10] (setting [18]) it was 4.26 µM [rising, full curve].

Turning to `CC(C(=O)O)c1cccc(C(=O)c2ccccc2)c1` (stereo unspecified), the max response in assay [1] (setting [12]) was 23.6% and 52.5%; in [1] (setting [13]) it was 39.2% and 56.4%. Further, the AC50 in assay [1] is 39.8 µM [rising, single point]; in assay [10] (setting [17]), 26.9 µM [falling, full curve].
